# Laboratory results reported in PubChem BioAssay (Tox21).
# Where “and” joins values, the source holds several entries; their conditions need not be identical. Equal values may be shown once. The inconclusive results got no clear call from the source; some entries with a clear call stand among them for comparison. For some assays here: Potencies beside an inconclusive call are fits to weak or partial responses and may not hold up. Calls of active or inactive are those of the source. Unless noted, the call rests on the fitted dose curve.
# Columns and labels:
# [1] = target: Peroxisome proliferator-activated receptor gamma (Homo sapiens) (UniProt P37231); assay: qHTS assay to identify small molecule agonists of the peroxisome proliferator-activated receptor gamma (PPARg) signaling pathway (AID 743094; active means well fitted activation curve with a large enough effect in the signal ratio in the repeat runs, not every such curve was filed as active; inconclusive means weak or mixed curves, or effect the other way; inactive means no such curve, though single readings can be large or run the other way; the % refers to the signal ratio; further: potency means the concentration at half of the fitted maximal effect); settings: HEK293H PPARg-UAS-bla, beta-lactamase FRET ratio, 17 h; activation: at 57 µM (top of the series) unless noted
# Summary of the method: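 Beta-lactamase FRET fluorescence was the read-out after a 1 h room-temperature substrate step, following 17 h compound treatment at 37C of HEK293H cells expressing a UAS-driven bla reporter responsive to PPARg.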
# [2] = target: Peroxisome proliferator-activated receptor gamma (Homo sapiens) (UniProt P37231); assay: qHTS assay to identify small molecule antagonists of the peroxisome proliferator-activated receptor gamma (PPARg) signaling pathway (AID 743191); settings: HEK293H PPARg-UAS-bla, beta-lactamase ratio, antagonist, 17 h; ratio activity, negative = inhibition: at 62.6 µM (top of the series) unless noted; further: nearly all actives have a fitted effect of over 30% in size; further: potency means the concentration at half of the fitted maximal effect; on ratio activity, negative = inhibition: on the % scale 0 is the no-effect control and ±100 the full control effect
# Summary of the method: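 Beta-lactamase reporter under UAS control in HEK293H PPARg-bla cells; compound treatment 17 h at 37C. Read-out: fluorescence intensity after 1 h room-temperature incubation with LiveBLAzer B/G FRET substrate.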
# [3] = qHTS assay for small molecule agonists of the antioxidant response element (ARE) signaling pathway (AID 743202; active means well fitted activation curve with a large enough effect in the signal ratio in the repeat runs, not every such curve was filed as active; inconclusive means weak or mixed curves, or effect the other way; inactive means no such curve, though single readings can be large or run the other way; the % refers to the signal ratio; further: potency means the concentration at half of the fitted maximal effect; on activation: on the % scale 0 is the no-effect control and ±100 the full control effect); settings: HepG2 ARE-bla reporter, beta-lactamase FRET, 16 h
# Summary of the method: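 An ARE-responsive beta-lactamase gene stably integrated in HepG2 cells serves as reporter. After 5 h plating and 16 h compound incubation at 37 C, fluorescence of the B/G FRET substrate was measured.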
# [4] = qHTS assay for small molecule activators of the heat shock response signaling pathway (AID 743210; active means well fitted activation curve with a large enough effect in the signal ratio in the repeat runs, with a control signal flat, not every such curve was filed as active; inconclusive means weak or mixed curves; the % refers to the signal ratio; further: potency means the concentration at half of the fitted maximal effect); settings: HeLa HSE-bla reporter, beta-lactamase ratio, 5 h; activation: at 62.6 µM (top of the series)
# Summary of the method: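 In HSE-bla HeLa cells, 5 h compound incubation (37 C) precedes addition of LiveBLAzer B/G substrate; after 2.5 h at room temperature, fluorescence intensity indicates reporter induction.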
# [5] = target: Peroxisome proliferator-activated receptor delta (Homo sapiens) (UniProt Q03181); assay: qHTS assay to identify small molecule agonists of the peroxisome proliferator-activated receptor delta (PPARd) signaling pathway (AID 743212); settings: HEK293H PPARd-UAS-bla, beta-lactamase FRET ratio, 17 h; activation: at 62.6 µM (top of the series) unless noted; further: potency means the concentration at half of the fitted maximal effect
# Summary of the method: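 HEK293H UAS-bla reporter cells, human PPARd system; compounds delivered in DMSO after 5 h plating, then at 37 C. Beta-lactamase FRET read, 2 h RT substrate step.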
# [6] = target: Peroxisome proliferator-activated receptor delta (Homo sapiens) (UniProt Q03181); assay: qHTS assay to identify small molecule antagonists of the peroxisome proliferator-activated receptor delta (PPARd) signaling pathway (AID 743215; active means well fitted inhibition curve with a large enough effect in the signal ratio in the repeat runs, not every such curve was filed as active; inconclusive means weak or mixed curves, or effect the other way; inactive means no such curve, though single readings can be large or run the other way; the % refers to the signal ratio;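 further: cells stimulated with agonist L165041 at 300 nM final during compound exposure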; further: potency means the concentration at half of the fitted maximal effect; on ratio activity, negative = inhibition: on the % scale 0 is the no-effect control and ±100 the full control effect); settings: HEK293H PPARd-UAS-bla, beta-lactamase FRET ratio, antagonist, 17 h; ratio activity, negative = inhibition: at 62 µM (top of the series) unless noted
# Summary of the method: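 Read-out is beta-lactamase FRET fluorescence, measured 2 h after substrate addition at room temperature. Beforehand, UAS-bla HEK293H cells carrying the PPARd reporter were exposed to compounds with L165041 at 300 nM final for 17 h at 37 C.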
# [7] = target: Bile acid receptor (Homo sapiens) (UniProt Q96RI1); assay: qHTS assay to identify small molecule agonists of the farnesoid-X-receptor (FXR) signaling pathway (AID 743220; active means well fitted activation curve with a large enough effect in the signal ratio in the repeat runs, not every such curve was filed as active; inconclusive means weak or mixed curves, or effect the other way; the % refers to the signal ratio; further: potency means the concentration at half of the fitted maximal effect); settings: HEK293T FXR-UAS-bla, beta-lactamase FRET ratio, 16 h; activation: at 62.6 µM (top of the series) unless noted
# Summary of the method: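 Beta-lactamase reporter under UAS control in GeneBLAzer FXR HEK 293T cells (5000/well) measured with LiveBLAzer FRET substrate after 2 h at room temperature. Compound exposure lasted 16 h at 37C.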
# [8] = target: Vitamin D3 receptor (Homo sapiens) (UniProt P11473); assay: qHTS assay to identify small molecule agonists of the vitamin D receptor (VDR) signaling pathway (AID 743222); settings: HEK293T VDR-UAS-bla, beta-lactamase FRET ratio, 16 h; activation: at 63.5 µM (top of the series) unless noted; further: potency means the concentration at half of the fitted maximal effect
# Summary of the method: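 VDR-bla cells, 2,000/well; 4 h preincubation 37C; cpd (DMSO) 16 h; LiveBLAzer B/G substrate 2 h RT; fluorescence intensity read.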
# [9] = target: Vitamin D3 receptor (Homo sapiens) (UniProt P11473); assay: qHTS assay to identify small molecule antagonists of the vitamin D receptor (VDR) signaling pathway (AID 743223; active means well fitted inhibition curve with a large enough effect in the signal ratio in the repeat runs, not every such curve was filed as active; inconclusive means weak or mixed curves, or effect the other way; inactive means no such curve, though single readings can be large or run the other way; the % refers to the signal ratio; further: on the % scale 0 is the no-effect control and ±100 the full control effect); settings: VDR-UAS-bla HEK293T, beta-lactamase FRET ratio, 16 h; activity change, negative = inhibition: at 61 µM (top of the series) unless noted
# Summary of the method: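 Beta-lactamase reporter read-out: FRET substrate fluorescence after 2 h at room temperature, following 16 h exposure of VDR-bla cells to test compound plus 3 nM (final) 1alpha,25-dihydroxyvitamin D3 agonist at 37C.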
# [10] = qHTS assay for small molecule agonists of the antioxidant response element (ARE) signaling pathway - cell viability counter screen (AID 743203); settings: ARE-bla HepG2 viability, CellTiter-Glo luminescence, 16 h; viability change, negative = cytotoxic: at 73.3 µM (top of the series); further: nearly all actives have a fitted effect of over 55% in size; further: potency means the concentration at half of the fitted maximal effect
# Summary of the method: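 HepG2 cells carrying ARE-driven beta-lactamase; 2,000 cells/well; 5 hrs plating; compound pinned from DMSO; 16 hrs 37C/5% CO2; CellTiter-Glo added; 30 min RT; luminescence.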
# [11] = qHTS assay for small molecule activators of the heat shock response signaling pathway - cell viability counter screen (AID 743209; active means well fitted curve in the direction sought with a large enough effect in the repeat runs; inconclusive means weak or mixed curves; inactive means no such curve, though single readings can be large; an effect the other way counts as inactive or inconclusive; further: potency means the concentration at half of the fitted maximal effect; nearly all actives have a fitted effect of over 50% in size); settings: HSE-bla HeLa viability, CellTiter-Glo luminescence, 5 h; activity change, negative = cytotoxicity: at 62.6 µM (top of the series)
# Summary of the method: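 Luminescence from CellTiter-Glo, added after the beta-lactamase FRET read, gave the viability signal. Cells were HSE-bla HeLa treated with DMSO-dissolved compounds for 5 h at 37 C following overnight plating.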
# [12] = qHTS assay to identify small molecule agonists of the peroxisome proliferator-activated receptor delta (PPARd) signaling pathway - cell viability counter screen (AID 743211; active means well fitted curve in the direction sought with a large enough effect in the repeat runs; inconclusive means weak or mixed curves; inactive means no such curve, though single readings can be large; an effect the other way counts as inactive or inconclusive; further: nearly all actives have a fitted effect of over 55% in size; further: potency means the concentration at half of the fitted maximal effect); settings: PPARd-bla HEK293H viability, CellTiter-Glo luminescence, 17 h; activity change, negative = cytotoxicity: at 62.6 µM (top of the series)
# Summary of the method: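 Read-out: CellTiter-Glo luminescence, 30 min RT, measured in the same wells as the beta-lactamase reporter. Cells: GeneBLAzer PPAR delta UAS-bla HEK293H, 3000 cells/well, compound exposure 17 h at 37C.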
# [13] = qHTS assay to identify small molecule antagonists of the peroxisome proliferator-activated receptor delta (PPARd) signaling pathway - cell viability counter screen (AID 743213; active means well fitted curve in the direction sought with a large enough effect in the repeat runs; inconclusive means weak or mixed curves; inactive means no such curve, though single readings can be large; an effect the other way counts as inactive or inconclusive; further: potency means the concentration at half of the fitted maximal effect; nearly all actives have a fitted effect of over 50% in size); settings: PPARd-bla HEK293H viability, CellTiter-Glo luminescence, 17 h; viability change, negative = cytotoxic: at 62 µM (top of the series) unless noted
# Summary of the method: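 Same-well viability: cells pre-incubated 5 h, dosed with compound plus 300 nM L165041, kept 17 h at 37 C, FRET substrate 2 h RT, then CellTiter-Glo 30 min RT and luminescence.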
# [14] = qHTS assay to identify small molecule antagonists of the farnesoid-X-receptor (FXR) signaling pathway - cell viability counter screen (AID 743221; active means well fitted cell-killing curve with a large enough effect in the repeat runs, not every such curve was filed as active; inconclusive means weak or mixed curves, or effect the other way; inactive means no such curve, though single readings can be large or run the other way; further: potency means the concentration at half of the fitted maximal effect; nearly all actives have a fitted effect of over 50% in size); settings: FXR-bla HEK293T viability, CellTiter-Glo luminescence, 16 h; activity change, negative = cytotoxicity: at 62.6 µM (top of the series)
# Summary of the method: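 HEK 293T FXR-bla cells, 5 h pre-incubation; compound + CDCA 50 uM final, 16 h, 37 C; beta-lactamase FRET read first, then CellTiter-Glo luminescence, 30 min RT.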
# [15] = target: Bile acid receptor (Homo sapiens) (UniProt Q96RI1); assay: qHTS assay to identify small molecule antagonists of the farnesoid-X-receptor (FXR) signaling pathway (AID 743217; active means well fitted inhibition curve with a large enough effect in the signal ratio in the repeat runs, not every such curve was filed as active; inconclusive means weak or mixed curves, or effect the other way; inactive means no such curve, though single readings can be large or run the other way; the % refers to the signal ratio; further: potency means the concentration at half of the fitted maximal effect); settings: HEK293T FXR-UAS-bla, beta-lactamase ratio, CDCA-stimulated, 16 h; activity change, negative = inhibition: at 62.6 µM (top of the series) unless noted
# Summary of the method: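 HEK 293T FXR-UAS-bla, 5000 cells/well; compound + CDCA 50 uM final; 16 h, 37 °C; B/G FRET substrate 2 h RT; fluorescence.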
# [16] = qHTS assay to identify small molecule agonists of the farnesoid-X-receptor (FXR) signaling pathway - cell viability counter screen (AID 743218; active means well fitted curve in the direction sought with a large enough effect in the repeat runs; inconclusive means weak or mixed curves; inactive means no such curve, though single readings can be large; an effect the other way counts as inactive or inconclusive; further: potency means the concentration at half of the fitted maximal effect; nearly all actives have a fitted effect of over 45% in size); settings: FXR-bla HEK293T viability, CellTiter-Glo luminescence, 16 h; viability change, negative = cytotoxic: at 62.6 µM (top of the series) unless noted
# Summary of the method: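 HEK 293T FXR-bla cells; 5 h pre-incubation, 16 h compound exposure at 37 C; LiveBLAzer substrate 2 h RT, then CellTiter-Glo 30 min RT, luminescence.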
# [17] = activation: at 73.3 µM (top of the series) unless noted
# Tags describe the fitted curve by direction and shape or compound fluorescence and quenching.
# Sequence of UniProt Q96RI1 (Q96RI1 whole entry, looked up): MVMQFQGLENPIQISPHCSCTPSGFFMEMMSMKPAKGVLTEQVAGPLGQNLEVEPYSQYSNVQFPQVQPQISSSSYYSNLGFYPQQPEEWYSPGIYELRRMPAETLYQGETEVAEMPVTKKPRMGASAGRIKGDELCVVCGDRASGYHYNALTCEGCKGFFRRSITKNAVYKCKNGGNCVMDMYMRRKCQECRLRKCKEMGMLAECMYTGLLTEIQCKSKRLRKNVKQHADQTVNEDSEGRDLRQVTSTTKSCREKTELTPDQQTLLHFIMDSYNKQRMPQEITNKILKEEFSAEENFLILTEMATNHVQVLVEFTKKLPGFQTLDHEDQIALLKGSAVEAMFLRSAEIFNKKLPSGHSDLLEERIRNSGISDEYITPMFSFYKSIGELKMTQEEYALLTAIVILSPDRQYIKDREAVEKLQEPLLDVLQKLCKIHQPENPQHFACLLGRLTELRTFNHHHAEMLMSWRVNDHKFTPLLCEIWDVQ
# Sequence of UniProt P11473 (P11473 whole entry, looked up): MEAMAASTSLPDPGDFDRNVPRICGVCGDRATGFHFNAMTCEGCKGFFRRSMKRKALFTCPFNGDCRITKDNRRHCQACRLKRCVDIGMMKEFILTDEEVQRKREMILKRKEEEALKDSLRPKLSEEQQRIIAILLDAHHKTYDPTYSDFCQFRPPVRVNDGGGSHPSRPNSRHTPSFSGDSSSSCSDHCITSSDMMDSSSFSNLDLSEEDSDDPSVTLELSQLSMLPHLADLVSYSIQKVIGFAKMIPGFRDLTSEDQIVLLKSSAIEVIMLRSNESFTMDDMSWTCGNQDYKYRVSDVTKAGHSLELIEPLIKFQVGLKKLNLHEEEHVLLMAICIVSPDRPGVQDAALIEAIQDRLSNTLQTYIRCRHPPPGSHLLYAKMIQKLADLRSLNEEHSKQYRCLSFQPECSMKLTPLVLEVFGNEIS
# Sequence of UniProt P37231 (P37231 whole entry, looked up): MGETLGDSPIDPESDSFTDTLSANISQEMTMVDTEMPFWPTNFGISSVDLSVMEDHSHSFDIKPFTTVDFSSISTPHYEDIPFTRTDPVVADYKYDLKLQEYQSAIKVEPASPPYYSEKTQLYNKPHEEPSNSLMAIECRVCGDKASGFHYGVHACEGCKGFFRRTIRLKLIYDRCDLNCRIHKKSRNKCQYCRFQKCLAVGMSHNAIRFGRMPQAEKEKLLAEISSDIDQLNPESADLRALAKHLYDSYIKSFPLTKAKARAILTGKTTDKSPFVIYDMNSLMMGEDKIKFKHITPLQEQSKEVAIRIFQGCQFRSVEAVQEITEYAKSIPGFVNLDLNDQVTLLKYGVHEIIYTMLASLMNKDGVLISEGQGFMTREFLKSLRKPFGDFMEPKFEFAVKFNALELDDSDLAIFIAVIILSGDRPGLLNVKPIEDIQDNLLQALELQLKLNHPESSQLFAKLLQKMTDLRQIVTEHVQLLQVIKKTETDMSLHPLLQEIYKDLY
# Sequence of UniProt Q03181 (Q03181 whole entry, looked up): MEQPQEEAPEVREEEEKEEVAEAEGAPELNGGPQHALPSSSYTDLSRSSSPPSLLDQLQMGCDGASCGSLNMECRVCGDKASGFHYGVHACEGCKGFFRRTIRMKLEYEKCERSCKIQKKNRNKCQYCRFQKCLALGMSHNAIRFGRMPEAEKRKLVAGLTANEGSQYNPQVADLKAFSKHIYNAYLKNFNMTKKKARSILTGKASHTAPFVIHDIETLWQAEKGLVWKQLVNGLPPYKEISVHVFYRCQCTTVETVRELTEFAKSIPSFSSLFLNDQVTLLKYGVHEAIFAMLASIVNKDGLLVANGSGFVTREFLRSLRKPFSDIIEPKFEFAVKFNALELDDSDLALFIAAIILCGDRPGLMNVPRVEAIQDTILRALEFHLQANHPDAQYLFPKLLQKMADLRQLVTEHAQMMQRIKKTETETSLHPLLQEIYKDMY
smiles,measurement,setting,value
CCn1c2ccccc2c2cc([N+](=O)[O-])ccc21,Potency,[1],"inconclusive: 38.9 µM [activator, partial curve, poor fit]"
same,"ratio activity, negative = inhibition",[2],inconclusive: 10.2%
same,Potency,[3]; [17],inactive
same,Potency,[4],inconclusive: 57.1 µM [activator]
same,Potency,[5],"inconclusive: 61.6 µM [rising, single point]"
same,"ratio activity, negative = inhibition",[6],inconclusive: -2.67%
same,activation,[7],inconclusive: 9.81%
same,Potency,[8],"inconclusive: 61.6 µM [fluorescent, single point]"
same,"activity change, negative = inhibition",[9],inconclusive: 2.37%
O=C(O)c1ccccc1OP(=O)(O)O,Potency,[1],inactive
same,Potency,[2],inactive
same,Potency,[10],"inconclusive: 119 nM [cytotoxic, partial curve, poor fit]"
same,Potency,[9],inactive
COc1cc(/C=C/C(=O)O[C@H]2CC[C@]34C[C@]35CC[C@]3(C)[C@@H]([C@H](C)CCC=C(C)C)CC[C@@]3(C)[C@@H]5CC[C@H]4C2(C)C)ccc1O,Potency,[1],"inconclusive: 1.51 µM [falling, partial curve, poor fit]"
same,Potency,[2],inactive
same,activation,[3]; [17],inconclusive: -14.9%
same,Potency,[4],"inconclusive: 11.9 µM [falling, partial curve]"
same,Potency,[6],inactive
same,activation,[8],inconclusive: 11.8%
CCC(CC)C(=O)O,Potency,[1],inactive
same,"ratio activity, negative = inhibition",[2],inconclusive: 10%
same,Potency,[5],inactive
S=c1nccc[nH]1,Potency,[1],inactive
same,"ratio activity, negative = inhibition",[2],inconclusive: -20.8%
same,Potency,[3]; [17],"inconclusive: 27.3 µM [rising, partial curve]"
same,Potency,[7],inactive
CCCCCC/C=C\CCCCCCCC(=O)O,Potency,[1],"inconclusive: 24.5 µM [activator, partial curve, poor fit]"
same,Potency,[2],"inconclusive: 13.8 µM [activator, full curve]"
same,Potency,[10],inactive
same,Potency,[11],"inconclusive: 19.5 µM [cytotoxic, single point]"
same,Potency,[4],inconclusive: 54.9 µM
same,activation,[5],inconclusive: 1.49%
CC(C)CCOC(=O)/C=C/c1ccccc1,Potency,[1],inactive
same,"ratio activity, negative = inhibition",[2],inconclusive: 20.1% [at 81.1 µM]
same,Potency,[3]; [17],"inconclusive: 38.7 µM [rising, partial curve]"
same,Potency,[12],inactive
same,Potency,[6],inactive
CCN(CC)c1ccc2c(-c3ccc(S(=O)(=O)O)cc3S(=O)(=O)[O-])c3ccc(=[N+](CC)CC)cc-3oc2c1,Potency,[1],inactive
same,"ratio activity, negative = inhibition",[2],inconclusive: 3.71% [at 81.1 µM]
same,Potency,[10],"inconclusive: 79400 nM [cytotoxic, partial curve, poor fit]"
same,Potency,[11],"inconclusive: 1.27 µM [cytotoxic, full curve]"
same,Potency,[12],"inconclusive: 25.3 µM [cytotoxic, partial curve]"
same,Potency,[13],"inconclusive: 28.4 µM [cytotoxic, partial curve]"
same,Potency,[14],"inconclusive: 22.6 µM [falling, partial curve, poor fit]"
same,Potency,[9],inactive
C=CC(C)(CCC=C(C)C)OC(C)=O (stereo not drawn),activation,[1],inconclusive: -0.0705%
same,activation,[3]; [17],inconclusive: 7.04%
same,activation,[3]; at 73.3 µM (top of the series),inactive: 0.316%
same,Potency,[13],"inconclusive: 0.871 µM [cytotoxic, full curve, poor fit]"
same,Potency,[15],inactive
same,activation,[7],inconclusive: -0.465%
Cc1ccccc1N=Nc1ccc(N=Nc2c(O)ccc3ccccc23)c(C)c1,Potency,[2],inactive
CC(C)Oc1ccccc1O,"ratio activity, negative = inhibition",[2],inconclusive: 2.51%
N=c1ccn2c(n1)O[C@H]1[C@H](O)[C@@H](CO)O[C@H]12,"ratio activity, negative = inhibition",[2],inconclusive: 2.44%
Nc1ccc(C(=O)OCC(O)CO)cc1 (stereo not drawn),Potency,[2],inactive
COC(=O)C1=C(C)NC(C)=C(C(=O)OCCN(C)Cc2ccccc2)C1c1cccc([N+](=O)[O-])c1 (stereo not drawn),Potency,[1],"inconclusive: 10.7 µM [inhibitor, partial curve] and inconclusive: 24.4 µM [inhibitor, partial curve]"
same,Potency,[10],active: 24.2 µM and active: 26.6 µM
same,Potency,[4],inconclusive: 50.6 µM and inconclusive: 28.7 µM
same,Potency,[12],active: 24.4 µM and active: 26.6 µM
same,Potency,[5],"inconclusive: 33.5 µM [rising, single point]"
same,Potency,[13],active: 48.7 µM and active: 26.6 µM
same,Potency,[6],"inconclusive: 54.6 µM and inconclusive: 33.5 µM [inhibitor, single point]"
same,Potency,[15],"inconclusive: 48.7 µM [rising, partial curve] and inconclusive: 29.8 µM [rising, partial curve]"
same,Potency,[16],active: 24.4 µM and active: 29.8 µM
same,Potency,[7],"inconclusive: 54.6 µM [fluorescent, single point] and inconclusive: 33.5 µM [fluorescent, single point]"
same,Potency,[14],"inconclusive: 61.3 µM [falling, single point] and inconclusive: 33.5 µM [falling, single point]"
same,Potency,[8],"inconclusive: 38.7 µM [rising, partial curve]"
same,activation,[8],inconclusive: -32.7%
